Structures are written as SMILES. About 2,200 (0.71%) of roughly 310,000 compounds showed an effect of 50% or more. Effects have a minus sign here. The list shows a part of the results.

Consider 89 compounds from paper PMC4336329 (PLoS ONE, 2015).

For this assay, the target named is human ether-à-go-go-related gene (hERG) potassium channel (human, UniProt Q12809). As to the kind of experiment: primary screen, population patch clamp on CHO cells stably expressing hERG.
human ether-à-go-go-related gene (hERG) potassium channel, sequence (Q12809 whole entry, looked up): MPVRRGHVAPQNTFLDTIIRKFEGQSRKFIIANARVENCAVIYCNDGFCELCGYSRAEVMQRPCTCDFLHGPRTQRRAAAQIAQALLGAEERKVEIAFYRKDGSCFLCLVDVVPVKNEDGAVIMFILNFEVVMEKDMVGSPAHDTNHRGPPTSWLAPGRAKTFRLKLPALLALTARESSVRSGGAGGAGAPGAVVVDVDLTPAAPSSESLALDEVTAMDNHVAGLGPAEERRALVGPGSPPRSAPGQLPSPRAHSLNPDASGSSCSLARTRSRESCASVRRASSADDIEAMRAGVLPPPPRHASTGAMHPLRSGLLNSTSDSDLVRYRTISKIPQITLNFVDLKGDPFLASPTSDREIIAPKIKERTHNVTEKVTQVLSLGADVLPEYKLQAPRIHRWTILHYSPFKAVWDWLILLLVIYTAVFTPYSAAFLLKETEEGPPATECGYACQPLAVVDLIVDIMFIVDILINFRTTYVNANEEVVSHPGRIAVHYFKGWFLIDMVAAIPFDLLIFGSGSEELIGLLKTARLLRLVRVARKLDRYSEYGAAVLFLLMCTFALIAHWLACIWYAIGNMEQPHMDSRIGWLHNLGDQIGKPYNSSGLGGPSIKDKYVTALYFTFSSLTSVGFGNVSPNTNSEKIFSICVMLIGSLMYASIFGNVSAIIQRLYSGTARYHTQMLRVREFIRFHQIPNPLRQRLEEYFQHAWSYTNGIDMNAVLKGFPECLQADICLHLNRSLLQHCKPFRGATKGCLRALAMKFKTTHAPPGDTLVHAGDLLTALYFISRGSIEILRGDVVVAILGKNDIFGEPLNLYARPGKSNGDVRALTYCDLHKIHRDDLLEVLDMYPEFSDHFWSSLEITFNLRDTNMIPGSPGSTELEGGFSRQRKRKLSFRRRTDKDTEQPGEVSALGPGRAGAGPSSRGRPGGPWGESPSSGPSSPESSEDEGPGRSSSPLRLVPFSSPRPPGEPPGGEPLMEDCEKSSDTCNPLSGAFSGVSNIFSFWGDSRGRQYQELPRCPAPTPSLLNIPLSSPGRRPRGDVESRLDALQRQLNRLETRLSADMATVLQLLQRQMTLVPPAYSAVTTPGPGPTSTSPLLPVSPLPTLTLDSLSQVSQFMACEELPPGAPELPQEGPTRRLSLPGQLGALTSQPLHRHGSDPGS
As to `CN(C)S(=O)(=O)n1cc(/C=C(\NC(=O)c2ccccc2Cl)C(=O)NCCCn2ccnc2)c2ccccc21`, the “hERG current change (%, negative = inhibition) at 1uM” value is reported as 9.81%.
Take `COc1cc(/C=N/NS(=O)(=O)c2ccc(C)cc2)ccc1OCc1cccc(C(=O)O)c1`: the “hERG current change (%, negative = inhibition) at 1uM” value stood at 11.4%.
`CC(OC(=O)c1ccc2ccccc2c1)C(=O)N(C)Cc1ccccc1` (centres unmarked): the “hERG current change (%, negative = inhibition) at 1uM” value is on record as 0.498%.
In the case of `O=C1CC(c2cc(-c3ccccc3)no2)C1` it was 2.75%.
The same measure for `O=C(NC1CCCCC1)C(c1ccc(F)cc1)N(C(=O)c1cccs1)c1ccc2c(c1)OCO2` (centres unmarked): 12.5%.
On to `Cc1cc2oc(=O)sc2cc1NS(=O)(=O)c1cccc2cccnc12`, for which the “hERG current change (%, negative = inhibition) at 1uM” value was determined as 14.4%.
In the case of `CCc1cc(CNC(=O)CC2C(=O)NCCN2CC2CCCCC2)on1` (centres unmarked) it was 6.71%; in that of `CC(=O)Nc1ccc(NC(=O)CSc2nnc(C)c(=O)[nH]2)cc1`, 9.02%.
With `COc1ccc(NC(=O)CN(C)S(=O)(=O)c2ccc3c(c2)n(C)c(=O)c(=O)n3C)cc1`, the “hERG current change (%, negative = inhibition) at 1uM” value was 4.25%.
Turning to `CC(=O)c1cccc(NC(=O)C(C)OC(=O)CCn2c(C)csc2=O)c1` (centres unmarked), the “hERG current change (%, negative = inhibition) at 1uM” value is listed as 17.4%.
The same measure for `O=C(NCC(c1ccco1)N1CCCC1)c1cc2ccccc2s1` (centres unmarked): 9.59%.
As to `C/C(N)=C(/C#N)C(=O)CSc1nnc(-c2ccccc2Br)o1`, the “hERG current change (%, negative = inhibition) at 1uM” value was 12.3%.
Consider `COc1cc(C2c3c(oc4ccccc4c3=O)C(=O)N2Cc2ccco2)ccc1O` (centres unmarked), for which the “hERG current change (%, negative = inhibition) at 1uM” value is on record as -6.01%.
As to `COCCN(Cc1ccccc1)C(=O)Cc1ccc(OC)c(S(=O)(=O)N2CCOCC2)c1`, the “hERG current change (%, negative = inhibition) at 1uM” value is -7.01%.
For the compound `CCC(C)(C)n1nnnc1C(c1ccc(OC)c(OC)c1)N1CCN(c2ccccc2)CC1` (centres unmarked), the “hERG current change (%, negative = inhibition) at 1uM” value is 12.7%.
Regarding `CN(CC(=O)Nc1cccc(F)c1)C(=O)CSc1ccccc1F`, the “hERG current change (%, negative = inhibition) at 1uM” value is listed as 10.5%.
With `OCCC1CN(Cc2cccc3c2OCO3)CCN1Cc1ccccc1` (centres unmarked), the “hERG current change (%, negative = inhibition) at 1uM” value amounted to 7.11%.
On to `C=CCn1cnc2scc(-c3ccc(CC)cc3)c2c1=O`, for which the “hERG current change (%, negative = inhibition) at 1uM” value is reported as 7.3%.
As to `Cc1ccc(CN2CCNC(=O)C2CC(=O)N(C)C2CCOCC2)cc1` (centres unmarked), the “hERG current change (%, negative = inhibition) at 1uM” value worked out at 1.47%.
In the case of `O=C(NC(Cc1c[nH]c2ccccc12)C(=O)O)/C(=C\c1ccccc1)NC(=O)c1ccccc1` (centres unmarked) it was 7.98%.
The same measure for `COC(=O)C1(CCSC)NC(c2ccco2)C2C(=O)N(C)C(=O)C21` (centres unmarked): 8.09%; for `CCOc1ccc(C(=O)NCc2cccnc2)cc1`: 6.51%; for `COc1ccc(C2C(C#N)=C(N)Oc3cc(C)[nH]c(=O)c32)cc1OC` (centres unmarked): 5.65%.
For `COc1cc2c(cc1NC(=O)C(C)Sc1nc3ccccc3n1C)oc1ccccc12` (centres unmarked), the “hERG current change (%, negative = inhibition) at 1uM” value turned out to be 10.3%.
On to `OCCC1CN(Cc2cccn2-c2cccnc2)CCN1Cc1ccccc1` (centres unmarked), for which the “hERG current change (%, negative = inhibition) at 1uM” value was -7.57%.
In the case of `CCOc1ccc(S(=O)(=O)N2CCN(C(=O)c3sccc3C)CC2)cc1`, the “hERG current change (%, negative = inhibition) at 1uM” value is given as -8.01%.
The same measure for `O=C(Nc1ccccc1N1CCCCC1)c1ncoc1-c1cccc(F)c1`: 11.8%; for `O=S1(=O)CCN(Cc2cccc(C(F)(F)F)c2)CC1`: 16.1%; for `COCCN1CSC(=S)N(Cc2ccco2)C1`: 2.83%.
For the compound `CCc1ccc(C(=O)NNC(=O)c2c(CC)noc2C)cc1`, the “hERG current change (%, negative = inhibition) at 1uM” value amounted to 9.37%.
Consider `O=c1sc2ccccc2n1COc1ccc(Cl)cc1`, for which the “hERG current change (%, negative = inhibition) at 1uM” value turned out to be 8.2%.
In the case of `O=C(NN=C(Cc1ccccc1)Cc1ccccc1)c1ccc(F)cc1` it was -3.99%.
Regarding `CC(C)c1ccc(N(CC(=O)NCc2cccnc2)S(=O)(=O)c2ccccc2)cc1`, the “hERG current change (%, negative = inhibition) at 1uM” value is recorded as 5.61%.
Turning to `Cl.OC12CC3C[C@H](C1)C(N1CCOCC1)[C@@H](C3)C2` (some centres unmarked), the “hERG current change (%, negative = inhibition) at 1uM” value stood at 14.2%.
For `O=C(CN1N=C(c2ccc(Cl)cc2)CCC1=O)NCc1cccnc1`, the “hERG current change (%, negative = inhibition) at 1uM” value was -1.03%.
With `CCOC(=O)C1CCCN(C(=O)c2cncc(Br)c2)C1` (centres unmarked), the “hERG current change (%, negative = inhibition) at 1uM” value was 8.44%.
In the case of `CCc1ccc(CN2CCC(n3nccc3NC(=O)C3CCCC3)CC2)cc1` it was -68.2%; in that of `CCOCCn1c(=O)c2c(nc3n2CCN3c2ccc(C)cc2)n(C)c1=O`, 12.2%.
In the case of `COc1ccc(-n2cc(C(=O)c3ccccc3O)cn2)cc1` it was 13.2%; in that of `CC1CN(CC(=O)NCc2ccccc2)CC(C)O1` (centres unmarked), 19.2%; in that of `O=Cc1ccccc1-c1cn(CCCOCc2ccccc2)nn1`, 12.1%.
As to `COc1ccc(C(=O)NNC(=O)C2CCCO2)cc1` (centres unmarked), the “hERG current change (%, negative = inhibition) at 1uM” value turned out to be 19.7%.
In the case of `CC1(C)CC(=O)C=C(NCCN2CCN(C(=O)Cc3ccc(Cl)cc3)CC2)C1` it was 12.1%.
In the case of `COc1ccc(NC(=O)CNC(=O)Cc2ccccc2)cc1` it was 17.5%; in that of `O=C(Nc1ccccc1Br)c1c(F)cccc1Cl`, 9.18%.
The same measure for `O=C(c1ccco1)N1CCN(C(=O)C2CCCO2)CC1` (centres unmarked): 13.4%; for `COC(=O)c1sc(N)c(C(=O)OC)c1Cn1ncc(Cl)c(Cl)c1=O`: 2.21%.
On to `Nn1c(Cc2cccc3ccccc23)nnc1SCCOc1ccc(Br)cc1`, for which the “hERG current change (%, negative = inhibition) at 1uM” value worked out at 7.42%.
In the case of `Cc1cc(C(=O)O)ccc1-c1ccc(/C=C2\NC(=O)N(Cc3ccccc3Cl)C2=O)o1` it was 14.7%; in that of `COc1ccc(NS(=O)(=O)c2ccc(N3CCOCC3)c(NC(=O)c3ccccc3Br)c2)cc1`, -1.4%.
The same measure for `CCOC(=O)N1CCN(C(=O)/C(=C\c2ccc(SC)cc2)NC(=O)c2ccccc2)CC1`: -26.3%.
In the case of `Cc1cccc(NC(=O)CSc2nnc(CNC(=O)c3ccco3)o2)c1` it was 17.5%; in that of `Cc1cccc2cc(CN(CC3CCCO3)C(=S)Nc3ccccc3)c(=O)[nH]c12` (centres unmarked), 12.6%.
For `Cc1cccc(N2CCN(c3ccc(NC(=O)/C=C\C(=O)O)cc3)CC2)c1`, the “hERG current change (%, negative = inhibition) at 1uM” value was found to be 15.6%.
Turning to `Cc1cc(C(=O)COC(=O)/C=C/c2ccc(F)cc2)c(C)n1C`, the “hERG current change (%, negative = inhibition) at 1uM” value came out at 8.75%.
In the case of `CN(C)c1ncc(S(=O)(=O)c2ccc(Cl)cc2)c(-c2ccccc2)n1` it was 5.25%; in that of `Cc1cccc(C(=O)NC2CCN(CC(=O)Nc3ccccc3Cl)CC2)c1`, -4.14%; in that of `Clc1ccc(CSc2nnc(/C=C/c3ccccc3)o2)c(Cl)c1`, 8.39%.
In the case of `COc1ccc(CN(C)CC(O)COC(c2ccc(OC)cc2)c2ccc(OC)cc2)cc1` (centres unmarked) it was -80.8%.
The same measure for `CN(Cc1ccccc1)S(=O)(=O)c1cc2c3c(c1)CCN3C(=O)CC2`: 6.98%.
`COc1ccc(-c2noc(C3CCCN(C(=O)c4cccc(F)c4)C3)n2)cc1` (centres unmarked): the “hERG current change (%, negative = inhibition) at 1uM” value was determined as 9.08%.
In the case of `COc1ccc(NC(=O)CCS(=O)(=O)c2cc3c(cc2Cl)NC(=O)CO3)cc1OC` it was 19.1%; in that of `CCOC(=O)CSc1nc2nc(C)cc(C)n2n1`, 7.26%.
The same measure for `COC(=O)CSc1nc(NC#N)nc(NC(C)C)n1`: 19.3%.
Regarding `O=C(Nc1ccccc1OC(F)F)C1CCCN1C(=O)c1cccs1` (centres unmarked), the “hERG current change (%, negative = inhibition) at 1uM” value is on record as 13.9%.
In the case of `CCOC(=O)C1=C(Nc2ccc(Br)cc2)CC(C)(O)C(C(=O)OCC)C1c1ccccc1` (centres unmarked) it was 12.3%; in that of `Cn1cnc([N+](=O)[O-])c1Sc1n[nH]c(N)n1`, 10.5%; in that of `CN(Cc1nccs1)C(=O)c1ccc(OC2CCN(Cc3ccccn3)CC2)cc1`, 1.97%.
Regarding `CCOC(=O)Cc1nn(Cc2nc(-c3ccc(C)cc3)cs2)c(=O)c2ccccc12`, the “hERG current change (%, negative = inhibition) at 1uM” value was found to be 10%.
In the case of `Cc1sc2ncn(CCC(=O)O)c(=O)c2c1C`, the “hERG current change (%, negative = inhibition) at 1uM” value is 11.1%.
The same measure for `CCCCC(C(=O)NC(=O)NCc1ccccc1)N1C(=O)c2ccccc2C1=O` (centres unmarked): 16.7%.
As to `COc1ccc(-n2c(-c3ccccc3)nc3ccccc3c2=O)cc1`, the “hERG current change (%, negative = inhibition) at 1uM” value was -1.46%.
In the case of `CC1CCN(S(=O)(=O)c2ccc(S(=O)(=O)N3CCCC3)cc2)CC1` it was -3.5%; in that of `CC(C)(C)C(=O)N1NC(=Nc2ccccc2)SC1(C)C`, 7.38%; in that of `Cc1ccc(Cc2cnc(NC(=O)C3=NCCN3)s2)cc1`, 6.73%.
In the case of `Cc1cc(C)n2ncc(/C(N)=N/OC(=O)Nc3ccc(Cl)cc3)c2n1` it was 13.4%.
The same measure for `Cn1c(=O)c2c(SCC(=O)NC3CCCC3)nc(CC(C)(C)C)nc2n(C)c1=O`: 12.4%; for `Cc1ccc(CNC(=O)CO/N=C/c2ccc(C(C)(C)C)cc2)cc1`: 13.2%.
Consider `Nc1c2c(nc3ccccc13)CSCC2`, for which the “hERG current change (%, negative = inhibition) at 1uM” value was -11.5%.
In the case of `CC1=C(C(=O)Nc2ccccn2)C(c2ccccc2Cl)NC(=S)N1` (centres unmarked) it was 7.21%; in that of `Cc1n[nH]c(C)c1S(=O)(=O)N1CCN(C2CCCCC2)CC1`, 8.7%; in that of `CCCCS(=O)(=O)N1CCCC(C(=O)NCC2CCCO2)C1` (centres unmarked), 6.22%.
In the case of `Cc1ccc(NC(=O)c2sc3nc[nH]c(=O)c3c2C)c(C)c1` it was 7.84%.
In the case of `C=C(C)CNC(=S)Nc1cccc(S(=O)(=O)NC2=NCCC2)c1` it was 7.05%.
In the case of `O=C(O)CSC1CC(=O)N(c2cccc(Cl)c2)C1=O` (centres unmarked), the “hERG current change (%, negative = inhibition) at 1uM” value was 4.59%.
In the case of `O=C(CSC(=S)N1CCCC1)Nc1cc2c(cc1Br)OCCO2` it was 13.3%; in that of `O=C(COc1ccccc1-c1ccccc1)NN=C1CCCC1`, 9.96%; in that of `O=C(CSCc1c(Cl)cccc1Cl)Nc1nccs1`, -4.34%.
The same measure for `OCCN1CCN(c2ncnc3c2sc2nc(N4CCOCC4)c4c(c23)CCC4)CC1`: 6.82%.
